# Reference: the supplement of paper PMC12217912
# Some of the results follow. Sequences were assembled here from the parent chain. Values near 0.05 are background.
# B1: TEV protease; numbered along this chain (parent)
# chain: MGESLFKGPRDYNPISSSICHLTNESDGHTTSLYGIGFGPFIITNKHLFRRNNGTLVVQSLHGVFKVKDTTTLQQHLVDGRDMIIIRMPKDFPPFPQKLKFREPQREERICLVTTNFQTKSMSSMVSDTSCTFPSGDGIFWKHWIQTKDGQCGSPLVSTRDGFIVGIHSASNFTNTNNYFTSVPKNFMELLTNQEAQQWVSGWRLNADSVLWGGHKVFMVKPEEPFQPVKEATQL
# Variants of: B1
# Assay: raw area under fraction-flipped curve 0-4 h after induction (AUC4h, not background-subtracted), DNA-recorder readout of cleavage of the substrate (dimensionless); higher = more cleavage of the substrate by the protease variant
# Settings: temperature: 34 °C; time window: 0-4 h after rhamnose induction
# Method: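 In vivo DNA recorder in E. coli TOP10(DE3) ΔrhaA at 34 °C. Each TEVp single-site mutant (parent TEVp 0) is paired with a single-site variant of the 7-mer TEVs (canonical ENLYFQ|S). The substrate sits between flexible linkers in a Bxb1-sfGFP-TEVs-SsrA fusion, so cleavage stabilises Bxb1 and speeds flipping of a recombination array, read by NGS. The value is the raw area under the fraction-flipped curve over 0-4 h after rhamnose induction (AUC4h), with ≥20 reads per time point. It is not background-subtracted; inactive controls average about 0.047.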
# 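Also: Bxb1 expression induced with 0.2% (w/v) L-rhamnose at OD600 near 0.5, cultures sampled hourly, flipped fraction per protease–substrate barcode pair counted by paired-end Illumina sequencing.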
Variant,area with substrate ENLYCQS,area with substrate ENLYDQS,area with substrate ENLYEQS,area with substrate ENLYGQS,area with substrate ENLYHQS,area with substrate ENLYKQS,area with substrate ENLYMQS,area with substrate ENLYNQS,area with substrate ENLYQQS,area with substrate ENLYRQS,area with substrate ENLYSQS,area with substrate ENLYVQS,area with substrate ENLYWQS,area with substrate ENLYYQS,area with substrate ENLYIQS,area with substrate ENLYPQS,area with substrate ENLYTQS,area with substrate ENLYLQS
H143K,0.0384,0.0493,0.052,0.0613,0.0488,0.0535,0.0405,0.0603,0.0616,0.0582,0.0508,0.0628,0.0616,0.0607,,,,
P155C,,0.0485,0.0447,0.0398,0.0668,0.039,,0.0576,0.0697,0.076,0.0688,0.0914,0.0771,0.0642,0.13,0.0574,,
G28E,0.0775,0.0616,0.0685,0.0584,0.0598,0.0543,0.0854,0.0604,,0.0726,0.0713,0.104,0.0707,0.0683,,0.0712,0.0846,
K46Y,,0.065,0.0625,0.0563,0.0555,0.0552,0.0605,0.0448,0.0549,0.0625,0.0488,0.0789,0.0435,,0.0035,0.0572,0.0523,0.0473
K46Q,0.121,0.0729,0.0889,0.064,0.0592,,0.0733,0.049,,0.0656,,,,,,0.0827,,0.104
L77D,0.0753,0.0654,0.065,0.0571,0.0588,0.0622,0.0645,0.0617,0.0569,0.0549,0.0624,0.0686,,0.0632,0.0675,0.0557,,0.0576
H47S,0.0567,0.0578,,,0.0598,0.064,,0.061,,0.0655,0.0563,0.0602,0.0555,,0.0536,0.0449,,0.0464
Y34F,,0.0653,0.0479,0.067,0.0658,0.0657,0.108,0.0702,,0.055,,,0.0775,,0.13,0.0555,,
Y34I,,0.0616,,,0.0356,0.0693,0.0664,,0.064,,,0.092,,0.0561,0.108,,0.0832,
I43T,,0.0572,0.0516,0.053,0.0576,0.0543,0.0727,0.0547,0.0541,0.0504,0.0682,0.0895,0.0507,0.0307,0.0941,0.0413,0.0708,0.065
I43C,0.0921,0.0575,0.0676,0.0548,0.0621,,0.0707,0.0705,0.0592,,0.0726,0.128,0.0618,0.0628,0.0905,0.0656,0.0715,0.0638
M122W,,0.0636,0.0673,0.0547,0.0705,,0.114,0.0721,,,0.0703,0.0972,0.0924,0.0631,0.128,0.0622,0.0917,0.0801
M122L,0.0928,0.0673,0.0771,0.0519,0.0594,0.0561,0.0726,0.079,,,0.0768,,,,0.133,0.0694,0.0727,
N175M,0.0747,,,,0.0718,0.0807,,0.061,0.061,0.0747,0.0497,,0.0678,,0.101,0.0523,,
N175D,0.0478,0.0674,0.0441,0.0632,0.0617,0.0326,0.0588,0.0524,,0.0845,0.0475,0.0834,0.0543,0.0573,0.0588,0.0581,0.0658,0.0649
F140A,0.0436,,,0.0858,0.0699,,,0.0636,,,,0.0665,0.0634,,,0.048,,
D161H,,0.073,0.0612,,0.0759,,,,0.0684,0.0621,0.119,0.074,0.0427,,0.0926,,,0.0601
Y179Q,0.0623,0.0511,0.0549,0.0607,0.0692,0.0414,0.0578,0.0637,0.0551,0.0592,0.057,0.0569,0.0588,0.0528,0.0604,0.0666,,
Y179T,0.0643,0.0575,0.0668,0.0472,0.0601,0.0645,0.0552,0.0793,0.0806,,0.0623,0.0501,,0.0662,,,,
D82W,,0.0707,0.0697,,0.059,,0.0501,0.0527,0.0656,0.0435,0.0594,,,0.0571,0.0538,,,0.0456
D82Q,,0.0644,0.0607,0.0491,,0.0689,0.0562,0.0631,0.063,0.0598,,,0.0516,0.0842,0.0535,0.0519,,0.0607
K142H,0.109,0.0665,0.0647,0.0594,0.0822,0.0606,0.0865,0.0723,0.043,0.0614,0.0769,0.133,0.0731,,0.13,0.0751,0.079,0.115
A196H,,0.0649,0.0703,0.0649,0.0654,0.0553,0.0915,0.0753,0.0611,0.0722,0.0677,0.118,,0.0742,0.158,0.0657,,
A196M,,0.0739,0.0718,0.0739,0.0757,0.124,0.103,0.0777,0.0536,0.0574,0.08,0.12,0.0724,,0.126,,0.0792,0.0922
L190W,,0.0611,0.0656,0.0664,0.0465,,0.0801,0.0656,,,0.0525,,0.0674,0.0709,,,,
H62M,,0.0748,,,0.0718,0.1,0.0919,0.104,0.0736,0.0638,,,,,0.0803,,,
N13D,,0.0612,0.0706,0.0788,0.0727,0.0554,,0.0643,,0.0677,,0.143,0.0537,,0.113,0.0783,0.0872,0.0845
